Measured values from the supplement of paper PMC3334620.
Whole data set: some 33,000 sequences, median “E-score (-0.5 to 0.5)” near -0.056, cut for the highest 2% near 0.38. The list shows a part of the results.

Each sequence was assayed against Stb4 (UniProt P50104) (assay: PBM E-score (8-mer binding enrichment) (E-score (-0.5 to 0.5)); higher = stronger / more preferred TF binding; most listed sequences are background and not binding sites). Details: protein concentration: 200 nM; construct: GST-DNA-binding domain.
Method: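 Universal 'all 10-mer' protein binding microarrays (Agilent AMADID 015681) probed with GST-tagged S. cerevisiae TFs (full-length or DBD) made by in vitro transcription/translation (PURExpress), about 100-200 nM. Bound TF was detected with fluorescent anti-GST. Each ungapped 8-mer (which stands for itself and its reverse complement) is scored by the PBM enrichment score (E-score), a modified Wilcoxon-Mann-Whitney statistic from -0.5 to +0.5, computed with the Universal PBM Analysis Suite. Scale: above 0.35 generally sequence-specific binding.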

Sequence | PBM E-score
GACCACTC | 0.0629
AGCATCAT | -0.0917
ACATACCG | 0.0646
CTGCGCGC | 0.0597
GTATTACA | 0.028
AACTATCA | 0.0771
CGGTGCCA | -0.0951
ACGGCCTA | 0.0635
AAAGGTGG | -0.152
TCCGCGCA | 0.284
AGATGGCA | -0.0446
ACTCAGAT | -0.212
ACGATTAA | -0.0906
ACCTGAGC | -0.274
AATTACCG | 0.283
AACATTCG | 0.0901
GTTCAGAA | -0.102
ACAGACCC | 0.118
TACCTGAA | -0.133
AACAAGAA | -0.0133
AGTGGATG | -0.152
AAAGCCCG | 0.167
GACGCGAC | -0.068
GTTTTGTA | 0.0271
CTCTTGAC | -0.107

Sequence | PBM E-score
CTCCCTTC | -0.0453
AACGGGTC | 0.156
AGCAAGAT | -0.0547
TCTATTCA | -0.201
AGCGGTCA | -0.0327
GGCTGACA | 0.121
CATTCGGC | 0.409
CGTACATA | -0.0677
ACGAGAGG | -0.046
TACTTCTA | -0.254
AATACAGA | 0.0167
ACCCGACT | 0.33
GCGAATCC | -0.0095
AAGCCGAG | 0.401
ACGAAGCG | -0.267
CTTGCGCC | -0.117
CAGGTCCA | -0.146
CCGACTAC | 0.281
ATCGACGA | -0.00793
CACCACTG | -0.27
AGCGCCCT | -0.0352
AAGAGGCC | 0.0161
GTTCGTGA | -0.205
AGTACGTA | -0.192
CAAAGTGG | -0.223

Sequence | PBM E-score
GTGACCGA | 0.182
GACCGACC | 0.0661
GGTAGACC | 0.143
CTCTAATC | -0.0726
CACGAGTC | -0.186
GACCGGAC | 0.203
CAGCGGAG | 0.03
ACCTTCGC | 0.0537
CAACAGCA | -0.113
AATCATAG | -0.00235
ATATTGAA | -0.0305
CAAACGAG | -0.121
CTAGTGAA | -0.124
ATCCCCAC | 0.0276
ATGTCTTC | -0.0885
CCAGGGAC | -0.237
ACCCAAAC | 0.0138
GCCATTCA | -0.0733
AGCTGCGA | -0.0306
GCTGATGA | -0.157
ATTCTTTG | -0.167
ATTAAGGA | -0.00265
CAAATCCC | 0.141
AACAGGCT | -0.216
CACAAGAC | -0.231

Sequence | PBM E-score
CATATCCA | -0.178
CTGTCCGA | 0.282
ATGGATCA | -0.156
CCTGTGGC | -0.0365
AAGCCTGG | -0.14
CAGAACAC | -0.0656
TAACTCTA | -0.104
GCGCTAGA | -0.16
TCGCTAGA | -0.16
AAGGTTCA | -0.021
TGGCTTAA | -0.0753
AGCACAGC | -0.0525
AAGAGTAT | -0.137
AGGCCGAC | 0.245
TTGGCCAA | -0.299
AGCTGTGG | -0.173
CGCTGTTC | -0.137
CTGTTTGA | -0.128
GACTTCGC | -0.0039
CCCTAGAC | -0.32
AGTCCCTG | -0.233
AATGTAGG | -0.0343
AGTTTTAA | -0.105
AGGCTACG | -0.281
GCGCGAAA | 0.052

Sequence | PBM E-score
ACCGAACG | 0.345
CCTAAACG | -0.0588
GCTCCCTA | -0.216
GCTCGGAA | 0.482
GTAAAAAC | -0.0446
ACACTCTG | -0.238
ATAGCGCG | 0.00989
CCGCCACC | 0.0636
ACTCTGCG | -0.098
CTAATCCA | -0.067
GAACTATC | -0.0561
CAGAACCG | 0.0439
TAGCCCAA | -0.199
GTGCACAC | -0.201
CAACAAAC | 0.0637
AGACTCGA | -0.181
ATTTGGCG | -0.136
GGTACCAC | 0.104
ATAGTACC | 0.0777
GCATAAGA | 0.0427
CTCGGCTA | 0.472
CTCTGGAC | -0.0837
AATACCAC | -0.0945
ATTGCCAG | 0.121
AGCACTGC | -0.134

Sequence | PBM E-score
AAGTCAGC | -0.13
AATTTCGG | 0.393
ACTGTCCT | -0.105
AAATTTTG | -0.0365
GCTTCTCC | -0.0282
TTCGCCAA | -0.255
CTGGTACC | -0.0941
ATGCGGAC | 0.0624
CGTCAATA | -0.058
ACAGTGAC | -0.023
CATCGGCG | 0.165
GGCTACCC | 0.0991
GGATCCGA | 0.459
ACCCGGAC | 0.268
AAAAAACA | 0.0653
ATTATCTA | -0.0238
GTTATGCA | -0.198
GACATGTC | -0.207
GAAGGCGA | -0.051
ATCATACC | 0.103
CCTGCCTA | -0.101
AGTTGTTG | -0.219
CAGAGCGG | -0.0262
ATATACTA | 0.1
CCCGTGTA | 0.128

Sequence | PBM E-score
CCTGAGAA | -0.0307
TCAGTCGA | -0.107
AAGAAACG | -0.084
CGCATTAC | 0.0606
GCTGCACC | 0.085
AACTGTAA | -0.104
CCCGGAAC | 0.416
GAGGCCGC | -0.0762
CTACCATC | 0.0541
ATCTCATA | -0.0412
AGAGCTTA | -0.146
CGGACCCG | 0.346
ACCTCATC | -0.12
CGGGCTTA | 0.14
AAAAGAGC | -0.189
CGTAACTA | -0.18
ATGTAGGA | -0.18
CGGTTTTC | 0.239
ATCGACAT | 0.00232
AGTATATC | 0.138
CGTTCGGC | 0.368
CAAGTCCC | -0.0804
